Experimental data: PMC10668032
This is one part of the list. At the low end of the ranking the order means little.

molecular target: SIX1-Q177R homeodomain (UniProt Q15475); experiment: universal protein binding microarray; details: Universal all-10-mer PBM (8x60K, AMADID 030236), 300 nM GST-tagged protein, Alexa Fluor 488 anti-GST; buffer, salt, pH and temperature not stated; high values mean tight binding; most listed sequences are background and not binding sites; double strand, one strand shown

Row | Sequence | binding signal
1 | GCCCATTA | -0.0208 E-score
2 | GGAGACTA | -0.163 E-score
3 | ATAGATTC | -0.213 E-score
4 | ATTTGGGA | -0.171 E-score
5 | CAGGCTGC | 0.0258 E-score
6 | CCGTCGGC | -0.032 E-score
7 | AGGACTCC | 0.0679 E-score
8 | ATCCAGGA | -0.0748 E-score
9 | ACCATATA | -0.0544 E-score
10 | ATGGGTCG | 0.0821 E-score
11 | AGGTAGCA | -0.185 E-score
12 | CTGATCTC | -0.11 E-score
13 | AAAGCTTC | -0.323 E-score
14 | GCCCCACA | 0.0253 E-score
15 | AGATGCCC | -0.218 E-score
16 | TCGCAAGA | 0.00384 E-score
17 | CCTGGCCG | -0.122 E-score
18 | ATCATGAA | -0.208 E-score
19 | GGCCCGTA | -0.0271 E-score
20 | GAACTCTC | -0.232 E-score
21 | ACCAGCTC | 0.097 E-score
22 | CCATCACC | 0.15 E-score
23 | CAACCACA | -0.0501 E-score
24 | CGCGTGGC | -0.216 E-score
25 | GAGCTGGC | -0.179 E-score

Row | Sequence | binding signal
26 | ACACCGAT | 0.473 E-score
27 | AGAGATGA | -0.235 E-score
28 | ATCACTCA | -0.037 E-score
29 | AAGCTATG | -0.167 E-score
30 | AAAGCCTA | -0.196 E-score
31 | CGATGAGA | -0.0851 E-score
32 | GACGCTGC | -0.0608 E-score
33 | CTTCTTCA | -0.116 E-score
34 | AGTTAGGA | 0.153 E-score
35 | ACCCGAAA | -0.0387 E-score
36 | CGTCCAGC | -0.202 E-score
37 | CCGGTTCC | -0.0668 E-score
38 | CTCGTTGA | -0.00205 E-score
39 | CTAATAGC | -0.178 E-score
40 | ACTGATAA | 0.0964 E-score
41 | TCGCGCCA | -0.0389 E-score
42 | ACTTTTAC | -0.0389 E-score
43 | AGCATACG | -0.0851 E-score
44 | ATACACAA | 0.0649 E-score
45 | ATCAGAAT | -0.0732 E-score
46 | ACTATACC | 0.0917 E-score
47 | AAAACACC | 0.437 E-score
48 | AGGGTTGG | 0.0319 E-score
49 | AATCCATG | -0.0667 E-score
50 | ACTTATGG | -0.111 E-score

Row | Sequence | binding signal
51 | CACAGACG | -0.101 E-score
52 | ATGACGTG | 0.1 E-score
53 | GCCCGGGC | 0.0428 E-score
54 | ATATGACC | 0.149 E-score
55 | CCTACCCA | 0.127 E-score
56 | GTTCTTAA | -0.21 E-score
57 | CGGTCAAC | 0.0351 E-score
58 | CAGTCCGC | -0.357 E-score
59 | GCTTAGGA | -0.0983 E-score
60 | GCGTGGCC | -0.244 E-score
61 | TCAAGGAA | -0.113 E-score
62 | ATTAATAA | -0.221 E-score
63 | AACGCTCA | -0.131 E-score
64 | GTAACCGA | -0.0472 E-score
65 | ATTTGCCC | -0.167 E-score
66 | AGCCTAGC | -0.181 E-score
67 | ACCTCACC | 0.0916 E-score
68 | ATGGAAAC | -0.0389 E-score
69 | TGGTAGAA | 0.103 E-score
70 | AAGAAGAG | -0.0245 E-score
71 | CACGATCG | 0.0981 E-score
72 | CCTATTAG | -0.0965 E-score
73 | CCCGCTGC | -0.148 E-score
74 | CAGACTAC | -0.0151 E-score
75 | GCGGGTGA | 0.0511 E-score

Row | Sequence | binding signal
76 | AATAGACG | -0.182 E-score
77 | CCGCAAAG | -0.07 E-score
78 | GCTAGGGA | -0.0684 E-score
79 | AGGGCAAA | -0.111 E-score
80 | CGTCCATC | -0.0863 E-score
81 | CTACTAAA | -0.109 E-score
82 | CGACCGCA | -0.057 E-score
83 | AGTCCCTA | -0.0799 E-score
84 | GGGTCATA | 0.237 E-score
85 | CGTCAGAA | -0.0258 E-score
86 | GCGAGTAA | -0.015 E-score
87 | ACGGCTCG | -0.0413 E-score
88 | GGGGCACC | 0.0953 E-score
89 | CTTATAAA | -0.0228 E-score
90 | AGGAACCG | -0.118 E-score
91 | AAACAATC | -0.298 E-score
92 | AGACTCGC | -0.073 E-score
93 | CGAGTGTA | 0.382 E-score
94 | TATCAAGA | -0.0926 E-score
95 | TTACAGAA | -0.285 E-score
96 | GTTGCGTA | -0.104 E-score
97 | CGGATATC | 0.0661 E-score
98 | ACACCTGA | 0.448 E-score
99 | AATGACAG | -0.191 E-score
100 | TGACCGCA | -0.118 E-score

Row | Sequence | binding signal
101 | ATTTGTAC | -0.122 E-score
102 | GCCGATAC | 0.138 E-score
103 | AGGCAGGA | 0.158 E-score
104 | GCGACTAC | 0.0791 E-score
105 | AAGCCGGC | -0.168 E-score
106 | AAGACTTC | -0.209 E-score
107 | CTGGTTAA | -0.11 E-score
108 | AAATACGG | -0.117 E-score
109 | CTATCTCC | -0.113 E-score
110 | GATGGTAC | -0.0663 E-score
111 | CTAGTAAC | -0.109 E-score
112 | CCTACGCA | 0.17 E-score
113 | AACCTGGT | 0.152 E-score
114 | AGTACCCA | 0.175 E-score
115 | AATTGGTC | -0.223 E-score
116 | ATCTCAAC | 0.00286 E-score
117 | AACACACC | 0.395 E-score
118 | ATACTGTA | 0.0343 E-score
119 | CAGAATGC | -0.292 E-score
120 | GAGACCCC | 0.225 E-score
121 | TAGCCGGA | -0.0344 E-score
122 | AATAGGTG | 0.207 E-score
123 | CCCGTACC | 0.0901 E-score
124 | GTTGGATA | -0.00297 E-score
125 | ATCCCCTG | 0.156 E-score

Row | Sequence | binding signal
126 | GTAAGTAC | -0.0262 E-score
127 | AAGGATGA | -0.0842 E-score
128 | ATTGGACA | 0.159 E-score
129 | CACACCAG | 0.416 E-score
130 | GCTTTGCC | -0.186 E-score
131 | AACACAAC | 0.176 E-score
132 | GCCGAGAC | 0.0808 E-score
133 | GTCTTTCA | -0.195 E-score
134 | AAGACTGT | -0.233 E-score
135 | ATATGATG | -0.191 E-score
136 | CGGCGAAA | -0.074 E-score
137 | ATATTGAT | -0.0789 E-score
138 | CCACCTTA | 0.0504 E-score
139 | AGATCTTA | -0.2 E-score
140 | ACTTTCGC | -0.0664 E-score
141 | AGAGCATG | -0.148 E-score
142 | GATAATCA | 0.135 E-score
143 | GATTGCCA | -0.224 E-score
144 | CGATGTTA | 0.071 E-score
145 | GAGGCGAA | -0.221 E-score
146 | GGCTGTAC | -0.016 E-score
147 | AGGCACAC | 0.203 E-score
148 | GTCTTGCA | -0.0534 E-score
149 | CTACACTC | 0.412 E-score
150 | GAGCCGTA | -0.152 E-score

Row | Sequence | binding signal
151 | CGCAGGCC | -0.12 E-score
152 | ATCGACGG | -0.0115 E-score
153 | TAAGTTGA | 0.123 E-score
154 | CCGCCATC | -0.118 E-score
155 | CAGAGCCA | -0.27 E-score
156 | AGCGCCGA | -0.257 E-score
157 | GAGTTCAA | -0.167 E-score
158 | ACCACAGG | -0.0446 E-score
159 | ATCGCACA | -0.0639 E-score
160 | AGTGCTCA | 0.0592 E-score
161 | ACCCTTCC | 0.161 E-score
162 | CGTAACCC | 0.225 E-score
163 | CTGGTAGC | -0.123 E-score
164 | CCCTAGAG | 0.132 E-score
165 | AAAACACG | 0.321 E-score
166 | CTCACGGC | -0.169 E-score
167 | ATTGGATC | 0.0864 E-score
168 | CATGCCCG | -0.0916 E-score
169 | AATTCGAT | -0.172 E-score
170 | AACGGTAT | 0.00353 E-score
171 | CTAGTCGA | -0.0889 E-score
172 | CGCTCCGA | -0.0278 E-score
